Test results published in PubChem BioAssay AID894 (National Center for Advancing Translational Sciences (NCATS), 2007).
The whole screen tested about 150,000 compounds, of which about 6,500 (4.3%) were called active. The shares of active, inactive and inconclusive entries below differ from those in the screen. The call rests on the fitted dose curve; in most records, active means well fitted inhibition curve with a large enough effect (not every such curve was filed as active); inconclusive means small, poorly fitted or top-dose-only effect, or another doubt; inactive means no such curve, though single readings can be large or run the other way. Potencies of inconclusive entries are left out as doubtful fits.

biological target: 15-hydroxyprostaglandin dehydrogenase [NAD(+)] (Homo sapiens) (UniProt P15428); experiment: qHTS Assay for Inhibitors of HPGD (15-Hydroxyprostaglandin Dehydrogenase); conditions: purified HPGD, NADH fluorescence kinetic, PGE2 substrate; activity change, negative = inhibition: active compounds read low
Chain of UniProt P15428 (P15428 whole entry, looked up): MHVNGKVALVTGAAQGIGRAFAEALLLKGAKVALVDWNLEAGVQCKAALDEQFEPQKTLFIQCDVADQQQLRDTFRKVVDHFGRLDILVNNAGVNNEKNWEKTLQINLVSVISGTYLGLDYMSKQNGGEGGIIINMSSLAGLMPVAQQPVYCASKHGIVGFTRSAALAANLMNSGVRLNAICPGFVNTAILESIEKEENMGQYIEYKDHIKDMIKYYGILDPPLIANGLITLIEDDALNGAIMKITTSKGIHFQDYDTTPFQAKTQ
How it was run: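 20 nM HPGD preincubated 15 min at room temperature with compound in 50 mM Tris-HCl pH 8, 0.01% Tween 20. Started with 1 mM NAD+ and 30 uM prostaglandin E2; NADH fluorescence (360/450 nm) read 5 times over 30-s intervals, last minus first.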
On the % scale 0 is the no-effect control and ±100 the full control effect; potency means the concentration at half of the fitted maximal effect; tags describe the fitted curve by direction and shape.

SMILES	Potency	activity change, negative = inhibition
CC1CCN(C(=O)c2cc(-c3ccccc3O)on2)CC1	active: 14.1 µM	
Cc1ccc(S(=O)(=O)Nc2cccc3c2CCCC3)cc1		inactive: -11.4%
O=C(N/N=C\c1ccccc1OCc1ccccc1)c1ccco1		inactive: -11.3%
CCCCCNC(=O)CCc1ccccc1	inconclusive [inhibitor, single point]	
O=C(c1cccc(F)c1)N1CCc2ccccc2C1	active: 5.01 µM	
CCCn1nc2cc(C(=O)NCCCCc3ccccc3)ccc2c1OCC	inconclusive [inhibitor, partial curve]	
Cc1csc(NC(=O)CSc2ccc3nnc(CCNS(=O)(=O)c4ccccc4)n3n2)n1		inactive: -12.2%
CC(CC(=O)NCC1CCCO1)c1ccccc1 (centres undefined)	active: 15.8 µM	
O=C(O)c1ccccc1-c1ccc(/C=c2\sc3nc4cc(Br)cnc4n3c2=O)o1	active: 31.6 µM	
CCOC(=O)N1CCN(C(=O)c2nn(-c3ccc(C)cc3)c(=O)c3c2c2ccccc2n3C)CC1	inconclusive [inhibitor, single point]	
CCCCC1(O)CC(C(F)(F)F)=NN1C(=O)COc1ccccc1 (centres undefined)	inconclusive [inhibitor, partial curve]	
COc1ccc(N2CCN(c3oc(Cc4cccc5ccccc45)nc3C#N)CC2)cc1	inconclusive [inhibitor, partial curve, poor fit]	
Cc1cc(C)cc(Oc2ccccc2C=O)c1		inactive: -4.13%
Cc1ccc(S(=O)(=O)NCc2ccc(C(=O)N3CCc4ccccc4C3)cc2)cc1	active: 1.41 µM	
Cc1ccc2nc(N3CCN(C)CC3)c(C#N)cc2c1	inconclusive [inhibitor, partial curve]	
CCn1c2ccc(CC(=O)O)cc2c2cc(CC(=O)O)ccc21	inconclusive [inhibitor, single point]	
Cc1ccc(NC(=O)COC(=O)/C=C/c2cccs2)cc1	active: 28.2 µM	
COc1cccc(Nc2ncc3nc(CCc4ccccc4)c(=O)n(C[C@H]4CCCO4)c3n2)c1	inconclusive [inhibitor, single point]	
O=C(Oc1cc(-c2ccccc2)no1)c1cccc(C(F)(F)F)c1		inactive: -16.8%
N#Cc1nc(-c2ccco2)oc1N1CCOCC1	inconclusive [inhibitor, partial curve]	
CCOC(=O)c1cnn2cc(-c3[nH]ncc3[N+](=O)[O-])cnc12	inconclusive [inhibitor, partial curve]	
CC1CCc2c(sc(NC(=O)Cn3nc(C(F)(F)F)c4c3CCCCC4)c2C#N)C1 (centres undefined)	active: 35.5 µM	
Cc1cccc(Nc2nnc(SCc3cc(=O)n4cc(C)ccc4n3)s2)c1	active: 15.8 µM	
Cc1nnc(N/N=C/c2cc([N+](=O)[O-])c(N3CCC(C)CC3)cc2N2CCC(C)CC2)n1N	active: 25.1 µM	
CC(C)CC(C(=O)Oc1ccc2c3c(c(=O)oc2c1)CCC3)N1C(=O)c2ccccc2C1=O (centres undefined)	inconclusive [inhibitor, single point]	

SMILES	Potency	activity change, negative = inhibition
CC1CN(C(=O)c2ccc3c(c2)OCO3)CC(C)O1 (centres undefined)	active: 25.1 µM	
O=C1Nc2ccccc2OC1CC(=O)N1CCCC1 (centres undefined)	inconclusive [inhibitor, partial curve]	
O=C(NCCn1cccc1)c1cccc2ccccc12	active: 31.6 µM	
COc1ccccc1-c1nn2c(-c3ccco3)nnc2s1	inconclusive [inhibitor, partial curve]	
CC1CCN(C(=S)c2cn(Cc3ccccc3F)c3ccccc23)CC1		inactive: -10.7%
O=C(COc1ccccc1)Nc1cccc2nsnc12	inconclusive [inhibitor, partial curve]	
COC(=O)c1c(NC(=O)COC(=O)CCc2ccc(S(=O)(=O)N3CCOCC3)cc2)sc2c1CCC2	inconclusive [inhibitor, partial curve]	
COC(=O)c1cc(OC)c(OC)cc1NC(=O)c1ccoc1C	inconclusive [inhibitor, partial curve]	
Cc1noc(C)c1COC(=O)CCCc1c[nH]c2ccccc12	inconclusive [inhibitor, partial curve, poor fit]	
COc1ccc(C(=O)c2c[nH]c(C(=O)NCc3ccco3)c2)cc1	inconclusive [inhibitor, single point]	
Cc1nc2cnc(N3CCN(C)CC3)nc2n(Cc2cccs2)c1=O	inconclusive [inhibitor, partial curve]	
Cc1cc(Cl)ccc1OCC(=O)NC1CCCC1	active: 14.1 µM	
CN(C)c1oc(-c2cccs2)nc1C#N	inconclusive [inhibitor, partial curve]	
COc1cc2[nH]cc(C(=O)NCCc3ccccc3)c(=O)c2cc1OC	inconclusive [inhibitor, partial curve]	
COC(=O)c1ccccc1NC(=O)CN1C(=O)C2CCCN2c2ncc(Cl)cc21 (centres undefined)	inconclusive [inhibitor, partial curve, poor fit]	
CC1CCN(C(=O)c2cc(F)c(F)cc2Cl)CC1	active: 12.6 µM	
CCCCN(C)C(=O)c1coc(=O)c2ccccc12	active: 22.4 µM	
O=C(Cc1coc2ccc3ccccc3c12)NCc1ccccc1		inactive: -21.8%
CCCc1cc(=O)[nH]c(SCC(=O)NC(=O)OCC)n1		inactive: -15.8%
CN(CCC#N)C(=O)CSc1ncnc2sc(-c3ccccc3)cc12	inconclusive [inhibitor, single point]	
COC(=O)c1c(-c2ccccc2)csc1NC(=O)c1c(-c2ccccc2)noc1C	inconclusive [inhibitor, single point]	
N#C/C(=C/c1ccccc1[N+](=O)[O-])c1nc(C2CC2)cs1	inconclusive [inhibitor, partial curve]	
Cc1ccc(-n2c(Cc3cccs3)nnc2SCC(=O)Nc2ccc(S(N)(=O)=O)cc2)cc1		inactive: -0.952%
O=C1c2ccccc2NC(c2ccc(Cl)cc2Cl)N1Cc1ccccc1 (centres undefined)	inconclusive [inhibitor, partial curve]	
COc1cccc(-c2cc(C(F)(F)F)nc(-n3cncn3)n2)c1	inconclusive [inhibitor, partial curve]	

SMILES	Potency	activity change, negative = inhibition
COc1ccccc1-c1oc2ccccc2c(=O)c1O	inconclusive [inhibitor, partial curve]	
COc1ccc(OCc2ccc(C(=O)N3CCOCC3)cc2)cc1	active: 7.94 µM	
CCOC(=O)N1CCC(NC(=O)c2cc3c(C)nc4ccccc4c3o2)CC1	inconclusive [inhibitor, partial curve]	
CN1CCN(C(=O)c2cc3nc(-c4ccc(Cl)cc4)cc(C(F)(F)F)n3n2)CC1	inconclusive [inhibitor, partial curve]	
Cc1nn(-c2c(Cl)cc(Cl)cc2Cl)c(=O)c2ccccc12	active: 12.6 µM	
O=C(NN=C1c2ccccc2-c2ccccc21)c1ccccc1Br		inactive: -15.9%
CCN(C(=O)Nc1ccccc1)c1ccccc1		inactive: -13.8%
COc1ccc(-c2nc3n(c(=O)c2C#N)CCCS3)cc1	inconclusive [inhibitor, partial curve]	
CN1CCN(C2=C(Cl)C(=O)N(Cc3ccccc3)C2=O)CC1	inconclusive [inhibitor, partial curve]	
COC(=O)c1ccc(N=NNc2ccccc2)cc1	active: 25.1 µM	
CC1CCc2c(sc(Nc3nc4c(F)cccc4s3)c2C(N)=O)C1 (centres undefined)	inconclusive [inhibitor, partial curve]	
CC1(C)OC(=O)C(=NNc2ccccc2)C(=O)O1		inactive: -23%
Cc1ccc(-c2ccc(/C=N\NC(=O)C3C(=O)NCC3c3ccccc3)o2)cc1Cl (centres undefined)	inconclusive [inhibitor, partial curve]	
C=CCn1c(SCc2ccc(Cl)c(Cl)c2)nnc1C(CO)NC(=O)c1ccc(OC)cc1 (centres undefined)		inactive: -18.7%
Cc1onc(-c2ccccc2)c1C(=O)Nc1nnc(-c2ccncc2)s1	inconclusive [inhibitor, partial curve]	
CCOC(=O)c1c(N)ssc1=S	active: 25.1 µM	
O=C(NC1CCCC1)C(c1ccsc1)N(CCc1ccccc1)C(=O)Cc1cccs1 (centres undefined)		inactive: -7.01%
CN(C)C(=O)CSc1nnc(-c2cc(-c3cccs3)nc3ccccc23)o1	inconclusive [inhibitor, partial curve]	
Cc1ccc(S(=O)(=O)Nc2cc(Cl)c(O)cc2C)cc1		inactive: -0.245%
CCOc1ccc(-c2ccc(SCC(=O)N3CCN(c4ccccc4)CC3)nn2)cc1		inactive: -3.7%
O=[N+]([O-])c1ccc(O)c(C=Nc2ccc3c(c2)OCCO3)c1	inconclusive [inhibitor, partial curve, poor fit]	
CCOc1cc(C2Nc3ccccc3C(=O)N2c2ccccc2)c(Br)cc1OCC(=O)O (centres undefined)	inconclusive [inhibitor, partial curve]	
CCOC(=O)C1CCCN(C(=O)CC(C)c2ccccc2)C1 (centres undefined)	inconclusive [inhibitor, partial curve]	
Cn1cccc1C(=O)N1CCC[C@@]2(CCN(Cc3ccc(C#N)cc3)C2)C1		inactive: -14.9%
